110 compounds from PubChem BioAssay AID488969 (Vanderbilt High Throughput Screening Facility, 2010) can be followed below.

Where “and” joins values, the source holds several entries; their conditions need not be identical. Equal entries are not always repeated. Over roughly 110,000 compounds, “z-score” has its median near -0.1; the highest 2% begin near 2. Some of the results follow. Calls of active or inactive are those of the source.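 Rule for the calls: active = z-score in the third read window above 3 or below -3; inactive = the rest.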

The target of this test is Metabotropic glutamate receptor 8 (Rattus norvegicus) (UniProt P70579). Kind of test: rat mGluR8 modulators via GIRK flux, primary screen, cell-based, thallium flux, HTS (AID 488969). Conditions: HEK293 rat mGluR8, GIRK (G protein-gated inwardly rectifying potassium channel) thallium flux, FluoZin2; at 10 µM; stronger effect = higher value; submaximal glutamate (EC20) added with thallium.
Chain of UniProt P70579 (P70579 whole entry, looked up): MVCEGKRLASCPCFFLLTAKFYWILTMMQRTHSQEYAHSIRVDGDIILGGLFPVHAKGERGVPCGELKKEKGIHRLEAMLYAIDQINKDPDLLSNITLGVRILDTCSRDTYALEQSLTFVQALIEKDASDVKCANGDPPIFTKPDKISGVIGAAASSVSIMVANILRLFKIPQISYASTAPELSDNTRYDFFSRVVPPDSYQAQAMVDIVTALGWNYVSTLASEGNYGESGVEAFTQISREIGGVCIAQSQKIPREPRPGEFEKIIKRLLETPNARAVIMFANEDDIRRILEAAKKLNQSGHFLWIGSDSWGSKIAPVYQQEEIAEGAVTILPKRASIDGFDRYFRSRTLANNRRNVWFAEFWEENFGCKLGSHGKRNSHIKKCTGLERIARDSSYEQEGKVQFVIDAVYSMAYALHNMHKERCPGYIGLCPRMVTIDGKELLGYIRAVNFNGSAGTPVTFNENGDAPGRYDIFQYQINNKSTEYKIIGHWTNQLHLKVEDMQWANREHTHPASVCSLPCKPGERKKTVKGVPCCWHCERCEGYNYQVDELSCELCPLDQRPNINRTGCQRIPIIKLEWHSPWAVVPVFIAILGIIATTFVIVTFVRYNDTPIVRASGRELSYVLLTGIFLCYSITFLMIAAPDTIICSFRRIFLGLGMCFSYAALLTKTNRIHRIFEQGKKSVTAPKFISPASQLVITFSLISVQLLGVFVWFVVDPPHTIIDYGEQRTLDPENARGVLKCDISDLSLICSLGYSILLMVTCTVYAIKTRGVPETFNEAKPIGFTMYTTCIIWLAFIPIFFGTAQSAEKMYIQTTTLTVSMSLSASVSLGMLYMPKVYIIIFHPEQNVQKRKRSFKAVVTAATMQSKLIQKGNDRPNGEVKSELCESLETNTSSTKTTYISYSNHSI
Compound `COc1ccc(C(=O)NC2CCN(C(=O)NC3CCCCC3)CC2)cc1` returned a z-score of -0.51.
As for `O=C(Nc1nnc(CCS(=O)(=O)c2ccc3ccccc3c2)s1)c1cccs1`, the z-score is 0.209.
With `Cc1ccc(C(=O)NCC(=O)OCC(=O)N2CCCc3ccccc32)cc1` the figure was -0.431.
As to `COc1ccc2[nH]c(C)c(CCN(Cc3cccs3)C(=S)Nc3ccc(F)cc3)c2c1`, the z-score was determined as 0.116.
In turn, `CCc1ccc(CNC(=O)C2CCC(=O)N2C2CCCCC2)cc1` (stereo not given) had a z-score of -0.165.
In turn, `C=CCNC(=O)c1onc(CSc2ccccc2F)c1C(=O)O` came in with a z-score of -0.015.
Consider `CCCCCCOC1(c2ccccc2)OC(=O)c2ccccc21` (stereo not given), for which the z-score is -0.0162.
Compound `CCOC(=O)N1CCN(CC(=O)c2c[nH]c3ccc(F)cc23)CC1` came in with a z-score of 0.432.
For the compound `CCC(C(=O)OC)n1cnc2c(nnn2-c2cccc(Cl)c2)c1=O` (stereo not given), the z-score was -0.889.
With `Cc1ccc(NC(=O)COC(=O)c2ccn(C)n2)cc1` the figure was -0.219; with `COc1ccc(NC(=O)C23CC4CC(C2)CC(n2cnc(Br)n2)(C4)C3)cc1OC`, -0.248; with `O=S1(=O)CCN=C2SC3=C(CCCC3)N21`, 0.111.
For `COc1ccc(NC(=O)/C(=C\c2ccc3c(c2)OCO3)NC(C)=O)cc1`, the z-score was found to be 0.277.
With `Cc1ccc(C(CC(=O)NCc2ccco2)c2ccccc2)c(O)c1` (stereo not given) the figure was -0.304.
With `COc1ccc(-c2noc(N(C)CC(=O)Nc3cccc(C(F)(F)F)c3)n2)cc1` the figure was 0.547; with `CCCCC1(CC(=O)OCC)C(=O)N(c2ccccc2)N(c2ccccc2)C1=O`, 0.157.
Compound `Cc1cc(NC(=O)CCC(=O)N(CC2CCCO2)C(C(=O)NC2CCCC2)c2ccccc2C)no1` (stereo not given) had a z-score of -0.179.
Consider `Cc1cccc(CCNC(=O)C2CCN(S(=O)(=O)c3cccc4nsnc34)CC2)c1`, for which the z-score was -0.207.
`COc1ccc(-c2cc(C(F)(F)F)nc(SCc3cccc(C(=O)O)c3)n2)cc1` came in with a z-score of -0.512.
`Cc1ccc(C(=O)Nc2ncc3c(Cl)cccc3n2)cc1` displayed a z-score of -1.32.
`O=C(Nc1ccccc1)c1cc(-n2cnnc2)ccc1Cl`: the z-score is 0.0933.
`Cn1c(-c2ccc(Cl)cc2)cnc1NCc1cc2c(cc1[N+](=O)[O-])OCO2`: the z-score stood at 0.55.
Take `COc1ccc(NC(=S)Nc2ccc(C)c(S(=O)(=O)N3CCCCC3)c2)cc1`: the z-score was found to be 1.48.
With `CC(C)CN(C(=O)c1ccc(=O)n(C)n1)c1nc2ccccc2s1` the figure was -0.793; with `CCOC(=O)CC(=O)CSC1=C(C#N)C(c2ccccc2OC)CC(=O)N1` (stereo not given), -0.591; with `O=C(NC(=S)Nc1ccc(C(=O)N2CCOCC2)cc1)c1ccc([N+](=O)[O-])cc1`, 0.905.
`CN1CCN(C/C(=C2/N=C(c3ccccc3)OC2=O)N(C)C)CC1` yielded a z-score of 1.46.
The compound `Cc1ccc(NC(=S)N2CCOCC2)cc1` showed a z-score of -0.0267.
The compound `CC(C)(C)c1cc(CN2CCOCC2)c(C(=O)O)o1` gave a z-score of 0.352.
Take `Cc1ccc(N(CC(=O)NC2CCCCC2)C(=O)c2ccc(C)s2)cc1`: the z-score was -0.156.
Take `CC(C)(C)c1nnc(NS(C)(=O)=O)s1`: the z-score was 0.0553.
Regarding `CCOC(=O)c1ccc(NC(=O)c2cn(CCC#N)nc2-c2ccc3c(c2)OCCO3)cc1`, the z-score was found to be 0.545.
With `CCOc1ccc(Br)cc1S(=O)(=O)Nc1nc(CN2CCOCC2)nc2sc(C)c(C)c12` the figure was -0.385; with `Cc1cccc(C)c1OCC(=O)N/N=C/c1ccncc1`, 0.137.
For the compound `Cc1cc2c(=O)n(Cc3ccco3)c(SCC(=O)N3CCCc4ccccc43)nc2s1`, the z-score was -0.202.
For `O=C(CCCn1c(=O)oc2ccccc21)N1CCc2ccccc2C1`, the z-score is -0.569.
Take `CCOC(=O)CN1C(=O)C2(OCCCO2)c2ccccc21`: the z-score was -0.0349.
The compound `COc1ccc(Br)cc1CN(C)CC(=O)Nc1cc(Cl)cc(Cl)c1` registered a z-score of -0.219.
With `CCOC(=O)C(NC(=O)Nc1ccc(F)cc1F)(Oc1ccc(F)cc1)C(F)(F)F` (stereo not given) the figure was -0.0622; with `CCOC(=O)C1CCCN(C(=O)CSCc2ccccc2)C1` (stereo not given), -1.22; with `COc1cc(NC(=O)Cn2nc(C(F)(F)F)c(Br)c2C)cc([N+](=O)[O-])c1`, 1.1.
On to `CCOC(=O)Cn1c(=O)oc2cc(S(=O)(=O)Nc3ccc(F)cc3)ccc21`, for which the z-score is -0.211.
As for `CN(C)c1ccc(CNC23CC4CC(CC(C4)C2)C3)cc1`, the z-score turned out to be 0.345.
`CCOC(=O)c1c(C)[nH]c(C(=O)COC(=O)c2ccccn2)c1C` yielded a z-score of -0.117.
In turn, `CC(C)NC(=O)c1ccc(-c2ccc(Cl)c(C(F)(F)F)c2)o1` came in with a z-score of -0.619.
With `COc1ccc(CCNc2oc(COc3ccccc3Cl)nc2C#N)cc1OC` the figure was -0.598.
With `Cc1cccc(NC(=O)Cc2coc3ccc4ccccc4c23)n1` the figure was -0.454.
`CCc1nc(N(CC)CC)c2oc3ccccc3c2n1` registered a z-score of -0.675.
Compound `Cc1cc(Cl)c(S(=O)(=O)N2CC(C)OC(C)C2)cc1OCC(N)=O` (stereo not given) had a z-score of 0.759.
Regarding `C/C(=C\c1cc(C(=O)O)c(C)o1)CO`, the z-score is -0.611.
Consider `CCC(C)(C)NC(=O)C(c1ccc(OC)cc1)N(CC1CCCO1)C(=O)CCC(=O)Nc1cc(C)on1` (stereo not given), for which the z-score is -0.119.
`Cc1ccccc1NC(=S)NC(=O)c1cc(-c2ccccc2)nc2ccccc12`: the z-score was active: 7.41.
With `Cc1cccc(C)c1NC(=O)C(c1ccc([N+](=O)[O-])cc1)N1CCCCC1` (stereo not given) the figure was -0.169.
`Nc1c(S(=O)(=O)c2ccccc2)nnn1-c1ccccc1` yielded a z-score of 0.0213.
For the compound `CCCc1cc(=O)[nH]c(SCCOc2ccc(OCC)cc2)n1`, the z-score was -0.92.
With `CCN(C(=O)c1cc2cccc(OC)c2oc1=O)c1ccccc1` the figure was -0.301; with `Cc1ccc(Cn2c(=O)c3c(nc4n3CCCN4Cc3ccccc3)n(C)c2=O)cc1`, -0.605.
For the compound `O=C(/C=C/c1ccc(Cl)c(Cl)c1)NCc1ccco1`, the z-score is -0.305.
On to `O=C(Nc1cc(C(F)(F)F)ccc1F)C1CCC1`, for which the z-score was 0.411.
The compound `O=S1(=O)CCC(NC(=S)NCCNC(=S)NC2CCS(=O)(=O)C2)C1` (stereo not given) had a z-score of 0.62.
With `CCCCSc1nc2c(cnn2-c2ccc(F)cc2)c(=O)[nH]1` the figure was -0.151; with `CCOc1ccc(-c2nnn(CC(=O)Nc3ccccc3OC)n2)cc1OCC`, 0.731.
`Cc1cc(/C(O)=C2\C(=O)C(=O)N(CCN(C)C)C2c2ccncc2)ccc1OCc1ccccc1` (stereo not given) returned a z-score of -0.175.
`Cc1ccc(OC(=O)c2oc3ccc(F)cc3c2C)c(C)c1` had a z-score of -0.0515.
`Cn1c(=O)cc(OCC(=O)NC2CCCCC2)c2ccccc21` registered a z-score of -0.168.
`O=C(Cc1ccccc1)Nc1ccc(Br)c(Cl)c1` showed a z-score of -0.178.
`O=C(NCC1CCCO1)c1cc(C(=O)C2CC2)c[nH]1` (stereo not given): the z-score was 0.0716.
Take `CC(C)C(NS(=O)(=O)c1cccc2nsnc12)C(=O)N1CCc2ccccc2C1` (stereo not given): the z-score was -0.0459.
With `CC1CCC(C(C)C)C(OC(=O)Cn2c(-c3ccccc3)[n+](C)c3ccccc32)C1` (stereo not given) the figure was 1.15 and -0.176; with `COc1cccc(C(=O)Nc2ccccc2N2CCCC2)c1`, -0.144.
Regarding `Cc1c(NC(=O)C(C)N2CC(C)OC(C)C2)c(=O)n(-c2ccccc2)n1C` (stereo not given), the z-score was 0.743.
With `CCOC(=O)c1cn(-c2nc(-c3ccc(Cl)cc3)cs2)c2c(F)c(N3CC(C)OC(C)C3)c(F)cc2c1=O` (stereo not given) the figure was -0.177.
`O=C(CC1CCCCC1)NC1CCCC1` had a z-score of 0.0952.
`Cc1cc(C)nc(SCC(=O)Nc2ccc(S(=O)(=O)NC(C)(C)C)cc2)n1` yielded a z-score of -0.301.
With `Cn1cnnc1SCC(=O)Nc1ccc(Br)cc1F` the figure was -0.164.
The compound `CC(C)=C1C2C=CC1C(C(=O)Nc1cccc(C)c1)C2C(=O)O` (stereo not given) came in with a z-score of -0.299.
`CC(C)CCOCc1nc2sc3c(c2c(=O)[nH]1)CCC(C)C3` (stereo not given) showed a z-score of -0.0689.
`COC(=O)CC1c2cc(OC)c(OC)cc2CC(=O)c2cc(OC)c(OC)cc21` (stereo not given) returned a z-score of -0.195.
Consider `CC1(C)Cc2c(ccc3ccccc23)-c2nnc(-c3cccnc3)n21`, for which the z-score was active: 3.16.
With `O=C(NO)c1ccc(OC(F)F)cc1` the figure was 0.319; with `Cc1ccc(CNC(=O)c2ccc3c(=O)n(CC4CCCO4)c(=S)[nH]c3c2)cc1` (stereo not given), 0.402.
The compound `Cc1cnc(NC(=O)CSc2nnc(-c3ccccc3)o2)s1` registered a z-score of 0.201.
As for `C=CCN(c1ccc(C(=O)N2CCN(c3ccc(F)cc3)CC2)cc1)S(C)(=O)=O`, the z-score turned out to be 0.686.
The compound `COc1cc(/C=C2\SC(=Nc3ccccc3)N(CCc3c[nH]c4ccccc34)C2=O)ccc1OC(C)C(=O)O` (stereo not given) returned a z-score of -0.537.
With `Cc1[nH]c2ccccc2c1CCO` the figure was 0.113; with `CC(C)Cn1c(=O)c(C(=O)N/N=C/c2cccc(F)c2)c(O)c2ccccc21`, 0.163.
With `O=C(c1ccccc1)c1ccc(N2CCOCC2)c(NC(=O)c2ccco2)c1` the figure was 1.09; with `CC(SCC(=O)NC(C)C1CC2CCC1C2)C(=O)O` (stereo not given), 0.297; with `O=C(CSc1nc2c(c(=O)[nH]1)CCCC2)Nc1ccc(Cl)cc1F`, -1.34.
As for `COCCn1c(C)cc(C2=NNC(=Nc3ccccc3)SC2)c1C`, the z-score was -0.413.
`COC(=O)c1c(NC(C)=O)sc2c1CCCCC2` yielded a z-score of -0.338.
With `CC(=O)c1ccc(NC(=O)C2CCN(S(=O)(=O)c3cccc4cccnc34)CC2)cc1` the figure was -0.751.
For `Cc1cc(/C=N/O)c(C)n1-c1ccc(Br)cc1`, the z-score was -0.177.
The compound `COc1ccc(C(=O)Nc2nc(-c3cccs3)c(NC(C)=O)s2)cc1` yielded a z-score of 0.337.
Take `COCCCNC(=O)c1cc2c(s1)CS(=O)(=O)C2`: the z-score is -0.0125.
`O=C(Cn1sc2ccccc2c1=O)NC12CC3CC(CC(C3)C1)C2` returned a z-score of -0.288.
`CCOC(=O)CC1C(=O)NCCN1S(=O)(=O)c1ccc(Cl)cc1Cl` (stereo not given): the z-score turned out to be 0.0867.
Regarding `O=S(=O)(NCC1CCCO1)c1cccc(C(F)(F)F)c1` (stereo not given), the z-score was 1.34.
For `N#Cc1ccccc1OCCN1C(=O)c2ccccc2C1=O`, the z-score was -2.03.
As for `Cc1nn(CCC#N)c2nc(-c3ccccc3)cc(C(F)(F)F)c12`, the z-score was found to be 0.5.
The compound `COCCn1c(CN2CCN(c3ccccc3)CC2)nc2c1c(=O)n(C)c(=O)n2C` displayed a z-score of 0.143.
With `O=C(c1ccc([N+](=O)[O-])cc1)N1CCSC1c1ccc(Cl)cc1` (stereo not given) the figure was -0.503; with `COc1ccc(S(=O)(=O)N/N=C\c2ccc3c(c2)OCO3)cc1`, -0.348; with `CC1CCC(NCc2ccco2)CC1` (stereo not given), -0.0226.
Compound `CCOC(=O)c1cc(-c2ccccc2)sc1NC(=O)c1ccc(OC)cc1` displayed a z-score of -0.199.
`CN(C)S(=O)(=O)c1ccc(Cl)c(C(=O)NCc2ccco2)c1` displayed a z-score of -1.56.
With `CCOc1nc(S(=O)(=O)c2ccc(C)cc2)c(Cl)s1` the figure was -0.802; with `O=C(CN1C(=O)NC2(CCCC2)C1=O)Nc1ccc(F)c(F)c1F`, 0.266.
In the case of `COc1ncnc2c1oc1nc(CC(C)C)c3c(c12)CCCC3`, the z-score came to 0.0377.
With `O=C(NCCCN1CCOCC1)c1ccc(Sc2cccc(Cl)c2)c([N+](=O)[O-])c1`, the z-score was -0.497.
